The list shows a part of the results, in another mix than the full data. The list includes weakly bound sequences.
How the values were obtained:
Test in all cases: protein-binding microarray (PBM)
Conditions in all cases: PBM: ~300 nM protein, 6 mM HEPES pH 7.8, 80 mM KCl, 0.5 mM EDTA, 0.5 mM EGTA, 6% glycerol, 35 ng/ul poly-dIdC, 1% milk, 1 h, room temperature; Ap Aiptasia and Nv Nematostella (sea anemones) / Co Capsaspora / Aq Amphimedon (sponge) / Dm Drosophila / Hu human; RHD is the Rel homology domain; high values mean tight binding; most listed sequences are background and not binding sites; double strand, one strand shown
GST-Ap-NF-kB RHD = molecular target: T1, GST-Ap-NF-kB RHD (UniProt A0A913YAJ5)
T1 sequence: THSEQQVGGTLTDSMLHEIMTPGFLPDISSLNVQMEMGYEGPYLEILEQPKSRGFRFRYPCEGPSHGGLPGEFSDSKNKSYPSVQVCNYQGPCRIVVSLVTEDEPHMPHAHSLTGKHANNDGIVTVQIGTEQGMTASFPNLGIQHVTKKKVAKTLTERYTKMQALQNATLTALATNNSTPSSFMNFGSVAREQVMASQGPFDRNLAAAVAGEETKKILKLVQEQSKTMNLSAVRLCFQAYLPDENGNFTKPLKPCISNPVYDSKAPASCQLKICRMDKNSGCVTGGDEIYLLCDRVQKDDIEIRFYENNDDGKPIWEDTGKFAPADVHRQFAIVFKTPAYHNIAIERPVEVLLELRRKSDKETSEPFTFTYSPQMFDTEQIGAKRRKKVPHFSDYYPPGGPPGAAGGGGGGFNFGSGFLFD

GST-Co-NF-kB = molecular target: T2, GST-Co-NF-kB (UniProt F1ARL5)
T2 sequence: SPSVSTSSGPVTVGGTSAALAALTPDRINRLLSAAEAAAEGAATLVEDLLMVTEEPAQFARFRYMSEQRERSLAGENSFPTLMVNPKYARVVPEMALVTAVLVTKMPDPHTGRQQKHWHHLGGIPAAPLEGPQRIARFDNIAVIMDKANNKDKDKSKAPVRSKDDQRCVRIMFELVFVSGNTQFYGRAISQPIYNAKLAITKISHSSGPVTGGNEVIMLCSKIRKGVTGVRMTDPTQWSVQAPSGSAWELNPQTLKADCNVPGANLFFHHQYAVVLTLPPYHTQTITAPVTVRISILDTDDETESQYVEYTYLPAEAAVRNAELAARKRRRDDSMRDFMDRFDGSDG

GST-Dm-Relish = molecular target: T3, GST-Dm-Relish (UniProt Q94527)
T3 sequence: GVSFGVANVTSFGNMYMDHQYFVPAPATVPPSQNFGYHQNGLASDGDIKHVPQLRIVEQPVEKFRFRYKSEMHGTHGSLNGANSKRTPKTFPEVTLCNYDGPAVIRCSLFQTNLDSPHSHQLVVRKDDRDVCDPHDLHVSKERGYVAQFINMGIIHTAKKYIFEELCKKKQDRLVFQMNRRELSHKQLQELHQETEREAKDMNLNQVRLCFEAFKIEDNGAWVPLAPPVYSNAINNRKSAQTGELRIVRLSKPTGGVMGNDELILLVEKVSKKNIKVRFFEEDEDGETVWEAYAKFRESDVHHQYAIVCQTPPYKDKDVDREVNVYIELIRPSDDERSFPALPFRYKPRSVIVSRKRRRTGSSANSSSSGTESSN

| Sequence | binding signal (GST-Ap-NF-kB RHD) | binding signal (GST-Co-NF-kB) | binding signal (GST-Dm-Relish) |
| --- | --- | --- | --- |
| CCGATTAACATCAGGAGGCCCCCTGATGTTAATCGGGTCTTGATTCGCTTGACGCTGCTG | 4.97 z-score | 0.624 z-score | – |
| CCGATTAACATCACGGAATTACCTGATGTTAATCGGGTCTTGATTCGCTTGACGCTGCTG | 1.02 z-score | 0.161 z-score | – |
| CCGATTAACATCAGAAAATACCATGATGTTAATCGGGTCTTGATTCGCTTGACGCTGCTG | 0.863 z-score | 0.38 z-score | – |
| CCGATTAACATCAGAAAATGCCCTGATGTTAATCGGGTCTTGATTCGCTTGACGCTGCTG | 1.93 z-score | 0.802 z-score | – |
| CCGATTAACATCAGGGAAATCACTGATGTTAATCGGGTCTTGATTCGCTTGACGCTGCTG | 3.41 z-score | 2.62 z-score | – |
| CCGATTAACATCACGGTTATTCCTGATGTTAATCGGGTCTTGATTCGCTTGACGCTGCTG | 1.09 z-score | 0.264 z-score | – |
| CCGATTAACATCACGGGAGTCCCTGATGTTAATCGGGTCTTGATTCGCTTGACGCTGCTG | 5.38 z-score | 1.57 z-score | – |
| CCGATTAACATCACGGGATTACCTGATGTTAATCGGGTCTTGATTCGCTTGACGCTGCTG | 3.75 z-score | 0.793 z-score | – |
| CCGATTAACATCAGGGGATCACCTGATGTTAATCGGGTCTTGATTCGCTTGACGCTGCTG | 7.26 z-score | 2.95 z-score | – |
| CCGATTAACATCAATAATTTCCCTGATGTTAATCGGGTCTTGATTCGCTTGACGCTGCTG | 4.38 z-score | 4.82 z-score | – |
| CCGATTAACATCAGATACCCCCCTGATGTTAATCGGGTCTTGATTCGCTTGACGCTGCTG | 6.55 z-score | 4.8 z-score | – |
| CCGATTAACATCAGGGATCTACCTGATGTTAATCGGGTCTTGATTCGCTTGACGCTGCTG | 3.06 z-score | -0.103 z-score | – |
| CCGATTAACATCAAATAGTCCCCTGATGTTAATCGGGTCTTGATTCGCTTGACGCTGCTG | 7.11 z-score | 4.46 z-score | – |
| CCGATTAACATCAGGAAATTCCATGATGTTAATCGGGTCTTGATTCGCTTGACGCTGCTG | 0.273 z-score | -0.127 z-score | – |
| CCGATTAACATCAAAGATCCCCCTGATGTTAATCGGGTCTTGATTCGCTTGACGCTGCTG | 7.86 z-score | 6.69 z-score | – |
| CCGATTAACATCACCCCCCCTGATGATGTTAATCGGGTCTTGATTCGCTTGACGCTGCTG | 4.83 z-score | 5.83 z-score | – |
| CCGATTAACATCAGGCAACCCCCTGATGTTAATCGGGTCTTGATTCGCTTGACGCTGCTG | 5.96 z-score | 2.03 z-score | – |
| CCGATTAACATCAGGGGATTGGATGATGTTAATCGGGTCTTGATTCGCTTGACGCTGCTG | 4.77 z-score | 2.06 z-score | – |
| CCGATTAACATCAGGAAGTTACCTGATGTTAATCGGGTCTTGATTCGCTTGACGCTGCTG | 0.577 z-score | 0.376 z-score | – |

| Sequence | binding signal (GST-Ap-NF-kB RHD) | binding signal (GST-Co-NF-kB) | binding signal (GST-Dm-Relish) |
| --- | --- | --- | --- |
| CCGATTAACATCAGGAATCTACCTGATGTTAATCGGGTCTTGATTCGCTTGACGCTGCTG | 0.929 z-score | -0.308 z-score | – |
| CCGATTAACATCAGGGATTTACATGATGTTAATCGGGTCTTGATTCGCTTGACGCTGCTG | 2.19 z-score | 0.832 z-score | – |
| CCGATTAACATCAGGAAAAAACCTGATGTTAATCGGGTCTTGATTCGCTTGACGCTGCTG | 0.158 z-score | -0.614 z-score | – |
| CCGATTAACATCACAAATCCCCCTGATGTTAATCGGGTCTTGATTCGCTTGACGCTGCTG | 8.39 z-score | 6.1 z-score | – |
| CCGATTAACATCAAACTTCCCCCTGATGTTAATCGGGTCTTGATTCGCTTGACGCTGCTG | 7.75 z-score | 9.35 z-score | – |
| CCGATTAACATCAGGAAATCACCTGATGTTAATCGGGTCTTGATTCGCTTGACGCTGCTG | 2.81 z-score | -0.0313 z-score | – |
| CCGATTAACATCAAAGTACCCCCTGATGTTAATCGGGTCTTGATTCGCTTGACGCTGCTG | 6.74 z-score | 6.64 z-score | 4.39 z-score |
| CCGATTAACATCAGGCAAATCCCTGATGTTAATCGGGTCTTGATTCGCTTGACGCTGCTG | 1.95 z-score | 0.285 z-score | – |
| CCGATTAACATCAAGGAATTTTCTGATGTTAATCGGGTCTTGATTCGCTTGACGCTGCTG | 0.246 z-score | -0.11 z-score | – |
| CCGATTAACATCAGAAATCCCGATGATGTTAATCGGGTCTTGATTCGCTTGACGCTGCTG | 3.14 z-score | 0.936 z-score | – |
| CCGATTAACATCAATAAATACCCTGATGTTAATCGGGTCTTGATTCGCTTGACGCTGCTG | 3.73 z-score | 2.51 z-score | 4.58 z-score |
| CCGATTAACATCAGGGCAGTACCTGATGTTAATCGGGTCTTGATTCGCTTGACGCTGCTG | 0.753 z-score | -0.383 z-score | 1.84 z-score |
| CCGATTAACATCAATTCTCCCCCTGATGTTAATCGGGTCTTGATTCGCTTGACGCTGCTG | 6.48 z-score | 10.7 z-score | – |
| CCGATTAACATCACGGAGTTCCCTGATGTTAATCGGGTCTTGATTCGCTTGACGCTGCTG | 2.6 z-score | 1.53 z-score | – |
| CCGATTAACATCAAACCCCCCCGTGATGTTAATCGGGTCTTGATTCGCTTGACGCTGCTG | 6.76 z-score | 5.57 z-score | – |
| CCGATTAACATCAATTGGGAAATTGATGTTAATCGGGTCTTGATTCGCTTGACGCTGCTG | 0.737 z-score | 1.8 z-score | – |
| CCGATTAACATCACGGGAAAACCTGATGTTAATCGGGTCTTGATTCGCTTGACGCTGCTG | 4.2 z-score | 5.1 z-score | – |
| CCGATTAACATCAGTTGGGAAAATGATGTTAATCGGGTCTTGATTCGCTTGACGCTGCTG | 0.681 z-score | 2.64 z-score | 0.639 z-score |
